Assay results published in the supplement of paper PMC12067230.
This is a noisy data set.
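Also: [psi-pin-] Saccharomyces cerevisiae expressing SupN fusions, induced by 100 µM Cu2SO4, selected 7 d at 30 °C without adenine and uracil, scored by deep sequencing of output versus input.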

Assay: amyloid nucleation score relative to library mode (yeast Sup35 reporter selection) (log enrichment difference); higher = more amyloid nucleation; sequences are the first 22 residues of the Bri2 peptide extended by up to 12 random residues
Conditions: random library (experiment): 1;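 active = nucleation score significantly above 0 at FDR 0.05; inactive = not significantly above 0 or absent from output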
Description: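 Random C-terminal extensions of the 22-aa Bri2 peptide by 12 NNK codons; premature stops give shorter extensions. Peptides were fused to the Sup35 nucleation domain in S. cerevisiae [psi-pin-] and selected on -ADE-URA plates for 7 d at 30 °C. The nucleation score is log(output/input), centred to the mode of each of 3 independent libraries (1 input, 3 technical output replicates), with duplicates merged. Sequences absent from the output ('random_non_nuc') were imputed with the library mode value, so they are given as censored (<). Nucleators are scores significantly >0 at FDR 0.05.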
With EASNCFAIRHFENKFAVETLICPSWQY the amyloid nucleation score was “inactive”. For EASNCFAIRHFENKFAVETLICRCHTVGF, the amyloid nucleation score was “inactive”. Work on EASNCFAIRHFENKFAVETLICYCLIASGMQTLD yielded an amyloid nucleation score of 5.19. In the case of EASNCFAIRHFENKFAVETLICCVLVRFTLGYAA, the amyloid nucleation score is reported as “inactive”. For EASNCFAIRHFENKFAVETLICLLYRWSMSLMYG, the amyloid nucleation score was “inactive”. In the case of EASNCFAIRHFENKFAVETLICYIRLDK, the amyloid nucleation score is reported as 1.89. For EASNCFAIRHFENKFAVETLICDIMGVRRPFMYK, the amyloid nucleation score was “inactive”. In the case of EASNCFAIRHFENKFAVETLICVMIS, the amyloid nucleation score is reported as “inactive”. Work on EASNCFAIRHFENKFAVETLICIGTGEKLVWRAL yielded an amyloid nucleation score of 3.54. In the case of EASNCFAIRHFENKFAVETLICELFRSSVAERRP, the amyloid nucleation score is reported as 2.12. For EASNCFAIRHFENKFAVETLICAPWLPTLSPGSL, the amyloid nucleation score was 3.31. With EASNCFAIRHFENKFAVETLICVEWVTHYHWRSV the amyloid nucleation score was “inactive”. EASNCFAIRHFENKFAVETLICVDLCKVDVVWCA showed an amyloid nucleation score of 3.71. With EASNCFAIRHFENKFAVETLICVTVLPSRMALVS the amyloid nucleation score was “inactive”. Work on EASNCFAIRHFENKFAVETLICYLESSQ yielded an amyloid nucleation score of 4.75. In the case of EASNCFAIRHFENKFAVETLICERLVLRGRSGVK, the amyloid nucleation score is reported as “inactive”. For EASNCFAIRHFENKFAVETLICKEGGCQWGPMRR, the amyloid nucleation score was “inactive”. For EASNCFAIRHFENKFAVETLICHISLGSLEVSWG, the amyloid nucleation score was “inactive”. With EASNCFAIRHFENKFAVETLICRVWTKVYTILEQ the amyloid nucleation score was “inactive”. EASNCFAIRHFENKFAVETLICDWTRSCCISSLC gave an amyloid nucleation score of 0.887. With EASNCFAIRHFENKFAVETLICHRLNVYWPHRDQ the amyloid nucleation score was 3.5. With EASNCFAIRHFENKFAVETLICRVTLNWWRADRG the amyloid nucleation score was 0.369. In the case of EASNCFAIRHFENKFAVETLICELGLLWLSTEVA, the amyloid nucleation score is reported as “inactive”. With EASNCFAIRHFENKFAVETLICTSYVGAVRVEGA the amyloid nucleation score was “inactive”. For EASNCFAIRHFENKFAVETLICFT, the amyloid nucleation score was 4.24. With EASNCFAIRHFENKFAVETLICDSVCYNIHWIIG the amyloid nucleation score was 7.75. With EASNCFAIRHFENKFAVETLICDRRLWRYVTKSM the amyloid nucleation score was “inactive”. With EASNCFAIRHFENKFAVETLICHCAGSGLRLGMS the amyloid nucleation score was 5.71. In the case of EASNCFAIRHFENKFAVETLICTSPPGRGSEQAM, the amyloid nucleation score is reported as “inactive”. With EASNCFAIRHFENKFAVETLICFYSMAKRHVKRL the amyloid nucleation score was “inactive”. Sequence EASNCFAIRHFENKFAVETLICVFDAVSTKVLVR has an amyloid nucleation score of -0.273. With EASNCFAIRHFENKFAVETLICLSLFNK the amyloid nucleation score was 7.49. For EASNCFAIRHFENKFAVETLICTVEIEGVLCCPF, the amyloid nucleation score was “inactive”. With EASNCFAIRHFENKFAVETLICVKVDLLRNGRDH the amyloid nucleation score was “inactive”. For EASNCFAIRHFENKFAVETLICRMLWV, the amyloid nucleation score was “inactive”. In the case of EASNCFAIRHFENKFAVETLICRGWYRWVHWGML, the amyloid nucleation score is reported as 0.796. EASNCFAIRHFENKFAVETLICRMNIYGVYVQVS gave an amyloid nucleation score of 6.34. For EASNCFAIRHFENKFAVETLICVRRPSLTTTGAQ, the amyloid nucleation score was “inactive”. In the case of EASNCFAIRHFENKFAVETLICAK, the amyloid nucleation score is reported as “inactive”. Work on EASNCFAIRHFENKFAVETLICQRW yielded an amyloid nucleation score of 3.25. In the case of EASNCFAIRHFENKFAVETLICRAPRRFPWRGAC, the amyloid nucleation score is reported as “inactive”. With EASNCFAIRHFENKFAVETLICVGYNYRVLLWPN the amyloid nucleation score was “inactive”. In the case of EASNCFAIRHFENKFAVETLICWTGRPWCQVVGW, the amyloid nucleation score is reported as “inactive”. For EASNCFAIRHFENKFAVETLICRSVGEGRTSASG, the amyloid nucleation score was “inactive”. EASNCFAIRHFENKFAVETLICCCPDFYMFEVL showed an amyloid nucleation score of 3.38. For EASNCFAIRHFENKFAVETLICQPILAT, the amyloid nucleation score was “inactive”. Work on EASNCFAIRHFENKFAVETLICCLLGNAKMSVAE yielded an amyloid nucleation score of 8.58. In the case of EASNCFAIRHFENKFAVETLICRKVMLTRMGIGL, the amyloid nucleation score is reported as “inactive”. With EASNCFAIRHFENKFAVETLICWITSTKFVSKLG the amyloid nucleation score was “inactive”. With EASNCFAIRHFENKFAVETLICTNPRDVVHILMY the amyloid nucleation score was -0.258. For EASNCFAIRHFENKFAVETLICNLWRFR, the amyloid nucleation score was “inactive”.

Same assay, conditions: random library (experiment): 2
With EASNCFAIRHFENKFAVETLICVDGECVLGKRIR the amyloid nucleation score was “inactive”. EASNCFAIRHFENKFAVETLICCARGHNLQMESW gave an amyloid nucleation score of 6.7. In the case of EASNCFAIRHFENKFAVETLICAFA, the amyloid nucleation score is reported as -0.365. EASNCFAIRHFENKFAVETLICCYST showed an amyloid nucleation score of 6.83. EASNCFAIRHFENKFAVETLICHLLIAIPCDFS gave an amyloid nucleation score of 4.79. In the case of EASNCFAIRHFENKFAVETLICRRSKSQRILWML, the amyloid nucleation score is reported as “inactive”. EASNCFAIRHFENKFAVETLICMWFSICCGNSWS gave an amyloid nucleation score of 4.38. With EASNCFAIRHFENKFAVETLICPAIV the amyloid nucleation score was “inactive”. For EASNCFAIRHFENKFAVETLICYYVDLVGTDGDR, the amyloid nucleation score was “inactive”. With EASNCFAIRHFENKFAVETLICHRNSFSSRLGVF the amyloid nucleation score was “inactive”. With EASNCFAIRHFENKFAVETLICMLLLMGLGSYVK the amyloid nucleation score was “inactive”. Sequence EASNCFAIRHFENKFAVETLICFYLYSDQ has an amyloid nucleation score of 6.17. With EASNCFAIRHFENKFAVETLICQDYTLRSIAIDW the amyloid nucleation score was “inactive”. EASNCFAIRHFENKFAVETLICNITFYE showed an amyloid nucleation score of 8.94. Sequence EASNCFAIRHFENKFAVETLICCTLVFLGMSAPM has an amyloid nucleation score of 6.45. With EASNCFAIRHFENKFAVETLICHEQMGHGRGTRT the amyloid nucleation score was “inactive”. For EASNCFAIRHFENKFAVETLICILARQQSYDVLN, the amyloid nucleation score was “inactive”. EASNCFAIRHFENKFAVETLICDTLFRSMITWLP gave an amyloid nucleation score of -0.344. For EASNCFAIRHFENKFAVETLICNIDWFLLDMVNK, the amyloid nucleation score was “inactive”. For EASNCFAIRHFENKFAVETLICLPNT, the amyloid nucleation score was “inactive”. Work on EASNCFAIRHFENKFAVETLICVVSYRGYVCARY yielded an amyloid nucleation score of 3.97. With EASNCFAIRHFENKFAVETLICPRFLYFVLSIWS the amyloid nucleation score was “inactive”. Work on EASNCFAIRHFENKFAVETLICWSWNCVEYHRVG yielded an amyloid nucleation score of 7.07. Work on EASNCFAIRHFENKFAVETLICLKCSMSVGGLWC yielded an amyloid nucleation score of 6.93. In the case of EASNCFAIRHFENKFAVETLICDFIILRRGVGRI, the amyloid nucleation score is reported as “inactive”. With EASNCFAIRHFENKFAVETLICITFECYARKSGR the amyloid nucleation score was -0.457. EASNCFAIRHFENKFAVETLICWSARRLRKLPG showed an amyloid nucleation score of 0.625. EASNCFAIRHFENKFAVETLICMPFVGSGMADEC showed an amyloid nucleation score of 6.97. For EASNCFAIRHFENKFAVETLICECL, the amyloid nucleation score was 0.186. In the case of EASNCFAIRHFENKFAVETLICGAR, the amyloid nucleation score is reported as “inactive”. For EASNCFAIRHFENKFAVETLICRITIRS, the amyloid nucleation score was “inactive”. In the case of EASNCFAIRHFENKFAVETLICNLGKSQGRYVES, the amyloid nucleation score is reported as “inactive”. EASNCFAIRHFENKFAVETLICAQYSNCGANSTK gave an amyloid nucleation score of 1.26. With EASNCFAIRHFENKFAVETLICYTADRVGVSVCL the amyloid nucleation score was “inactive”. With EASNCFAIRHFENKFAVETLICFKTVCIFRSYFI the amyloid nucleation score was “inactive”. For EASNCFAIRHFENKFAVETLICFHHSQSMDAGNR, the amyloid nucleation score was “inactive”.

Same assay, conditions: random library (experiment): 3
For EASNCFAIRHFENKFAVETLICCMDGC, the amyloid nucleation score was “inactive”. In the case of EASNCFAIRHFENKFAVETLICGSYTGRVTSSVE, the amyloid nucleation score is reported as “inactive”. With EASNCFAIRHFENKFAVETLICHTMFFAMYIKWW the amyloid nucleation score was “inactive”. With EASNCFAIRHFENKFAVETLICTPGRSKPVKTLN the amyloid nucleation score was “inactive”. With EASNCFAIRHFENKFAVETLICELNWVLMLCSWR the amyloid nucleation score was “inactive”. In the case of EASNCFAIRHFENKFAVETLICVQSAGRPMGAGA, the amyloid nucleation score is reported as “inactive”. For EASNCFAIRHFENKFAVETLICNQVHSFTDYVYM, the amyloid nucleation score was 2.18. For EASNCFAIRHFENKFAVETLICFWLFLAFEDLW, the amyloid nucleation score was “inactive”. For EASNCFAIRHFENKFAVETLICVKMYSWFVVVGV, the amyloid nucleation score was “inactive”. In the case of EASNCFAIRHFENKFAVETLICRLVPRSMQGRLR, the amyloid nucleation score is reported as “inactive”. With EASNCFAIRHFENKFAVETLICVLEYENNAWRQG the amyloid nucleation score was “inactive”. In the case of EASNCFAIRHFENKFAVETLICNRALV, the amyloid nucleation score is reported as “inactive”. In the case of EASNCFAIRHFENKFAVETLICASLSNRMSPGVV, the amyloid nucleation score is reported as “inactive”. In the case of EASNCFAIRHFENKFAVETLICWPTYLWKAKVSV, the amyloid nucleation score is reported as “inactive”. In the case of EASNCFAIRHFENKFAVETLICGGEEGTPPPTVP, the amyloid nucleation score is reported as “inactive”. For EASNCFAIRHFENKFAVETLICGRDEVSL, the amyloid nucleation score was “inactive”. In the case of EASNCFAIRHFENKFAVETLICGYGWVSFRWYEA, the amyloid nucleation score is reported as “inactive”. For EASNCFAIRHFENKFAVETLICVGAVENARSRQV, the amyloid nucleation score was “inactive”. In the case of EASNCFAIRHFENKFAVETLICRSPQVGECVLG, the amyloid nucleation score is reported as “inactive”. For EASNCFAIRHFENKFAVETLICLFGGHVSASSGT, the amyloid nucleation score was 8.42. For EASNCFAIRHFENKFAVETLICLVKSASAEVAHE, the amyloid nucleation score was “inactive”. In the case of EASNCFAIRHFENKFAVETLICWPPATVPQHIQG, the amyloid nucleation score is reported as “inactive”. For EASNCFAIRHFENKFAVETLICYGR, the amyloid nucleation score was 0.328. With EASNCFAIRHFENKFAVETLICDHMDPV the amyloid nucleation score was 1.47. With EASNCFAIRHFENKFAVETLICHNDFLRKVLARC the amyloid nucleation score was “inactive”. In the case of EASNCFAIRHFENKFAVETLICCFMRDNVQLSKL, the amyloid nucleation score is reported as 5.36. For EASNCFAIRHFENKFAVETLICGSGEYLWSILSR, the amyloid nucleation score was 0.104. EASNCFAIRHFENKFAVETLICWFEKDVWQQFAQ showed an amyloid nucleation score of 4.24.
